From the supplement of paper PMC3334620
Over roughly 33,000 sequences, “E-score (-0.5 to 0.5)” has its median near -0.041; the highest 2% begin near 0.37. This is one part of the list.

Biological target: T1, Ecm22 (UniProt Q05958)
T1 sequence: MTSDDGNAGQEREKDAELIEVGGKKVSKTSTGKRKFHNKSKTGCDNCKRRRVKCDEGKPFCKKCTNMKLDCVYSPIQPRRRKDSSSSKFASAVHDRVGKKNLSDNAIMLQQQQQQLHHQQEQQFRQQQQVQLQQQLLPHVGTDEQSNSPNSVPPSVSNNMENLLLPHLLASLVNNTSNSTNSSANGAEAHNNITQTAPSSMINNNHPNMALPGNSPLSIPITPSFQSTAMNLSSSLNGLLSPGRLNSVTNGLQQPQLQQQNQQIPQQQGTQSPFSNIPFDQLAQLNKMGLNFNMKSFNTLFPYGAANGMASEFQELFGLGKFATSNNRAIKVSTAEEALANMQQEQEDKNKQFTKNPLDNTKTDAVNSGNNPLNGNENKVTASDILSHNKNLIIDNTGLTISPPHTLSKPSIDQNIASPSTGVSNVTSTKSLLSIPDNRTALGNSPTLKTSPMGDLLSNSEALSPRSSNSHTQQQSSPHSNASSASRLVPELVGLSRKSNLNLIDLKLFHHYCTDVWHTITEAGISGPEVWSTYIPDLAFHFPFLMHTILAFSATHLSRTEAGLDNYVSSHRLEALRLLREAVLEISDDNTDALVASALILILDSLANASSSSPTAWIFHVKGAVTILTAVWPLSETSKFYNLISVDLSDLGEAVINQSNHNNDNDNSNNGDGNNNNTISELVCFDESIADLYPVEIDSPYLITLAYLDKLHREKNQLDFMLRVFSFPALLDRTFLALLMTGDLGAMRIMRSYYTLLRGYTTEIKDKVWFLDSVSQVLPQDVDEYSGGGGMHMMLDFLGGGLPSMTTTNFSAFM
Test: PBM E-score (8-mer binding enrichment) (E-score (-0.5 to 0.5)); higher = stronger / more preferred TF binding; most listed sequences are background and not binding sites
Conditions: protein concentration: 200 nM; construct: GST-full length
Outline: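 GST-tagged yeast TFs (full-length or DNA-binding domain) were made by PURExpress in vitro transcription/translation and applied at about 100-200 nM to universal all-10-mer Agilent arrays. The arrays were made double-stranded by primer extension, on fresh or once-stripped slides. Bound protein was detected with fluorescent anti-GST, and scans were normalised with masliner. Each ungapped eight-base word, pooled with its reverse complement, received an E-score (modified Wilcoxon-Mann-Whitney statistic) from the Universal PBM Analysis Suite.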

| Sequence | PBM E-score |
| --- | --- |
| ATACACTA | -0.0519 |
| AGCCTCCC | -0.249 |
| ACACAAAG | 0.139 |
| TCGAGCGA | 0.0676 |
| CAAGTATG | -0.112 |
| CCGCACAC | 0.0629 |
| CAAATCAA | -0.0191 |
| CCTGATTA | -0.137 |
| AGATCGGA | 0.00079 |
| AATTGTCC | -0.187 |
| ACAGTACA | 0.033 |
| ATTTCCGG | 0.107 |
| GTGTGGCA | -0.334 |
| ATCTTCAG | -0.0274 |
| AAATTGGT | 0.171 |
| CACCTTGG | -0.238 |
| ACGTGGGC | -0.134 |
| GCAGGCTA | -0.286 |
| CTGCCGGA | -0.181 |
| ATTACGCC | -0.0761 |
| ATGGCTTC | -0.268 |
| ACTGAGAC | -0.137 |
| CTGCGAGC | 0.0428 |
| TCGGTTAA | 0.387 |
| CGGGTGGA | 0.0162 |

| Sequence | PBM E-score |
| --- | --- |
| AAATATCC | 0.103 |
| ACGCCGAC | 0.101 |
| ATCTGTCA | -0.0758 |
| AACCGAAT | 0.284 |
| GCAAGTAA | -0.172 |
| CTCGATTC | 0.0368 |
| CCGGCTCA | -0.267 |
| ATGCCGAG | 0.257 |
| AAGGCGCG | 0.029 |
| ATTCCAAT | -0.0645 |
| ATGCAATC | -0.0621 |
| CGTATGAA | 0.415 |
| ATGGACTA | -0.073 |
| AAACCCGC | -0.125 |
| CACACGAA | 0.204 |
| CTTCTTTA | -0.0983 |
| ATACCTTC | -0.129 |
| TGGTTACA | 0.121 |
| ACAGACTA | -0.0643 |
| ACCAGAAG | -0.0736 |
| ACCTTCAG | -0.0269 |
| CAGGCCGC | -0.141 |
| GTAAATTA | 0.0338 |
| CCTTATAG | -0.0105 |
| ACCCTTCA | -0.151 |

| Sequence | PBM E-score |
| --- | --- |
| TAGATTGA | 0.0498 |
| ACTAAGCC | -0.104 |
| CCATATCG | 0.113 |
| GAAACAGA | 0.0398 |
| TACCCACA | -0.00174 |
| TCTCCCCA | -0.188 |
| TAAGGGTA | -0.102 |
| GGCCGGTA | -0.08 |
| ATGCCGGA | 0.0467 |
| CAATAACC | 0.0176 |
| GGGGTCAC | -0.152 |
| CAAGCGGG | -0.0323 |
| AACTACTT | -0.235 |
| AGAAATTA | 0.00273 |
| CAACGAAC | 0.272 |
| AGAGGAGA | -0.18 |
| CTGCCGGC | -0.237 |
| GTGGAACA | 0.0214 |
| CTACCTAC | -0.0219 |
| CACAGGTA | 0.0392 |
| CTAGTTAA | -0.153 |
| CTGCGGAC | -0.0604 |
| ACTGCAGA | -0.149 |
| GGGTCCAC | -0.295 |
| AACTCGGC | 0.127 |

| Sequence | PBM E-score |
| --- | --- |
| ACCACAGC | -0.0473 |
| CTGGAAAA | -0.16 |
| TACTAAGA | 0.0366 |
| CGAGTCCG | 0.158 |
| AAGACTGG | -0.117 |
| CGACAGAG | 0.144 |
| CAGGGGTC | -0.119 |
| CCTCGTCG | 0.218 |
| TGGAGCCA | -0.159 |
| AGATAGGC | 0.0141 |
| AGCACGGG | -0.123 |
| CAATAGAG | 0.0477 |
| ACGTGCCG | 0.0127 |
| CATACCTA | -0.235 |
| GGAGCAGA | -0.0547 |
| AGAAGGTC | -0.15 |
| GCCGAGGA | 0.146 |
| GAGGTGGA | -0.234 |
| AGAAGTAT | -0.0129 |
| CGCGTAGA | 0.107 |
| ACCGAAGG | 0.107 |
| TCGTGACA | 0.0412 |
| CCCCCGGG | -0.0719 |
| ACATCGGT | -0.092 |
| AAGAGCAA | -0.182 |

| Sequence | PBM E-score |
| --- | --- |
| CCCATAGA | -0.304 |
| GTGCGCAC | 0.182 |
| CGCTAAAA | 0.191 |
| ACCGCCAG | -0.0533 |
| GAAAGTAA | -0.0194 |
| AAGTGACG | -0.0692 |
| CTTGACCC | -0.189 |
| GTTCTATA | 0.222 |
| AGATCAGG | -0.0459 |
| AGCGTCAC | -0.0093 |
| CTTCATGC | 0.0867 |
| AATGACAT | -0.108 |
| TAAAGTAA | -0.0971 |
| CATTGAAC | 0.185 |
| ACCTCAAG | -0.218 |
| CGCATATA | 0.145 |
| CCCCCCTA | -0.272 |
| GGCGCGTA | 0.077 |
| GATATTCC | 0.0383 |
| TATGCACA | -0.0515 |
| ACTTTACC | 0.0956 |
| TGGGATAA | -0.319 |
| TCCTAGGA | -0.305 |
| GAGTCGAA | 0.111 |
| ATGATTCC | -0.0641 |

| Sequence | PBM E-score |
| --- | --- |
| CTTCAGGA | -0.0259 |
| AGTCAAAA | -0.159 |
| ACACTTCA | -0.121 |
| CCAGCATA | -0.219 |
| ATCGGTCC | 0.196 |
| CCTGATAG | -0.217 |
| GTCTCGGA | 0.242 |
| AGGCTTGC | -0.219 |
| AGAGCTCG | 0.148 |
| CCATGACC | -0.0476 |
| AGAGCGTG | 0.0343 |
| AGCCGCGC | -0.115 |
| ATAAGTAG | -0.139 |
| AGTGGGAC | -0.134 |
| ACACAGGT | -0.183 |
| CACAAGGG | -0.359 |
| AGGTGGCC | -0.127 |
| CTTATCTA | -0.0604 |
| ATGCGAAA | 0.195 |
| AGATGCCA | -0.145 |
| GGCCCGCA | -0.172 |
| CCTTCCAG | -0.242 |
| AATGAAGA | 0.0084 |
| AATTACGA | 0.361 |
| CCTTGACG | -0.25 |

| Sequence | PBM E-score |
| --- | --- |
| GGTCTCCA | -0.142 |
| GAGTCTTA | -0.0549 |
| ACTCGTCG | 0.269 |
| TATTTTCA | 0.0905 |
| AGCTACCT | -0.141 |
| TCTGGGAA | 0.00899 |
| ATTGCGAG | 0.197 |
| AATCGACA | 0.159 |
| ATGTCATA | 0.116 |
| CACACCAA | -0.0416 |
| GCCACCAA | -0.152 |
| GTTCTAGA | 0.0332 |
| TCGTCGAA | 0.0505 |
| AGCTTTTG | -0.0723 |
| CTGCTCCA | -0.285 |
| AGTACAAC | 0.0262 |
| CACTAGGG | -0.339 |
| GGACACAC | -0.0586 |
| CGAGCGCG | 0.246 |
| ACTCAGGG | -0.1 |
| CCTAGTTC | -0.0647 |
| AAGTATAG | -0.046 |
